Measured values published in PubChem BioAssay AID651568 (National Center for Advancing Translational Sciences (NCATS), 2012).
The campaign covered roughly 1,200 compounds. About 55 (5%) were called active. Inconclusive results (about 15%) are left out. The call rests on the fitted dose curve; in most records, active means well fitted inhibition curve with a large enough effect; inconclusive means small, poorly fitted or top-dose-only effect; inactive means no such curve, though single readings can be large or run the other way. The list shows a part of the results.

Test: qHTS Assay to Find Inhibitors of Chronic Active B-Cell Receptor Signaling: Hit Validation in Renilla Reporter Assay; further: nearly all actives have a fitted effect of over 70% in size
Conditions: TMD8 IkB-Renilla luciferase reporter, NF-kB signaling; series mostly up to 57.5 µM; activity change, negative = inhibition: at the top concentration
In short: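 Dual-Glo luminescence read-out of constitutively expressed IkB-Photinus/Renilla luciferase reporters in ABC-DLBCL lines, used to retest primary hits; reporter enzymes differ from the click beetle luciferases used in the primary screen.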
On the % scale 0 is the no-effect control and ±100 the full control effect; potency means the concentration at half of the fitted maximal effect.

SMILES	activity change, negative = inhibition	Potency
CCN(CC(=O)Nc1cc(Cl)ccc1C)C(=O)C1CC1	inactive: -0.258%	–
COc1cccc(-c2cc(=O)c3cc(NC(=O)c4ccc(N(C)C)cc4)ccc3[nH]2)c1	inactive: -13.2%	–
Cc1ccc(-c2oc3ncnc(N)c3c2-c2ccc(C)cc2)cc1	inactive: -2.78%	–
OCC1OC(n2cnc3c(NC4CCCCC4)ncnc32)C(O)C1O (stereo not drawn)	inactive: -20.3%	–
CNC(=S)N/N=C/c1ccc(N2CCOCC2)s1	inactive: -2.21%	–
COc1ccc2c(c1)C(C)=CC(C)(C)N2S(=O)(=O)c1ccc(Br)cc1	inactive: -22.8%	–
COC(=O)C1CC23C=CCN4CCC5(c6ccccc6NC15C2C)C43 (stereo not drawn)	inactive: -11%	–
CCOc1ccc(S(=O)(=O)N(CC(=O)NN=C2CCN(C)CC2)c2ccc(C)cc2)cc1	inactive: -0.0775%	–
CCOC(=O)c1[nH]c(C)c(C(=O)N2CCc3ccccc32)c1C	inactive: -6.3%	–
CCOC(=O)c1[nH]c2c(c1C)C(=O)CC(c1ccc(F)cc1)C2 (stereo not drawn)	inactive: 8.44%	–
CCCCOc1ccccc1NC(=O)Cn1c(-c2nonc2N)nc2ccccc21	inactive: -11.1%	–
O=C(O)c1ccc(CSc2nnc(-c3ccco3)o2)cc1	inactive: 1.63%	–
COc1ccc(CC(=O)OCC(=O)c2c[nH]c3ccccc23)cc1	inactive: 4.58%	–
COc1ccc(/C=N/NC(=O)c2[nH]c3ccc(C)cc3c2-c2ccccc2)c(C(=O)O)c1OC	inactive: -1.16%	–
CCOc1ccccc1NS(=O)(=O)c1ccc(-c2cnc(C3CC3)o2)cc1	inactive: -5.07%	–
CCOc1cc(CNc2ccc3c(c2)OCCO3)cc(Br)c1OCC	inactive: -3.09%	–
N#CC1=C(N)Oc2cc(N)ccc2C1c1cccc(Br)c1 (stereo not drawn)	inactive: -21.5%	–
Cc1ccc(/C=N/NC(=O)C2COc3ccccc3O2)s1 (stereo not drawn)	inactive: -2.31%	–
Cn1cccc1/C=C1\SC(=Nc2ccc(O)cc2)NC1=O	inactive: -4.1%	–
COc1c(Br)cc(Br)cc1/C=N/NC(=O)c1cccnc1	inactive: 0.885%	–
COc1ccc(N(CC(=O)NC2CCCC2)C(=O)Cn2nnc(-c3ccc(OC)c(OC)c3)n2)c(OC)c1	inactive: 27.8%	–
CCCC(=O)Nc1ccc2c(c1)nc(CN1CCN(C(=O)OCC)CC1)n2CC	inactive: -1.03%	–
OC(C#Cc1ccccn1)c1cccs1 (stereo not drawn)	inactive: -3.19%	–
Cc1cccc(NC(=S)NNC(=O)CCn2cc(C)cn2)c1	inactive: 6.59%	–
CCOc1ccc(NCc2ccccc2OCc2cccc(F)c2)cc1	inactive: -20.1%	–
C[C@]12CCC(=O)C=C1CC[C@@H]1[C@@H]2[C@@H](O)C[C@@]2(C)[C@H]1CC[C@]2(O)C(=O)CO	inactive: 4.8%	–

SMILES	activity change, negative = inhibition	Potency
COc1cc2c(cc1OC)C1=CC(=O)C(=O)N1C(C)(C)C2	inactive: -15%	–
Cc1ccc(C(=O)Nc2ncc(Cc3ccc(SC(F)F)cc3)s2)cc1	inactive: -18.5%	–
COc1cc(OC)cc(C(=O)NCC(=O)N2CC=C(c3ccccc3)CC2)c1	inactive: 1.29%	–
COC(=O)C1=C(C)NC(C)=C(C(=O)OC)C1c1ccc(N(C)C)cc1	inactive: 9.69%	–
Cc1cccc(N(C)S(=O)(=O)c2ccc(-c3cc(C)no3)s2)c1	inactive: 1.15%	–
COc1cc2nc(=S)n3[nH]c(CCn4nc(C)cc4C)nc3c2cc1OC	inactive: 1.16%	–
Cn1c(=S)[nH]c2c(c1=O)C(C)(C)Cc1ccccc1-2	inactive: -9.7%	–
COc1ccc(-c2cccc(-c3cc(=O)oc4cc(OC)cc(OC)c34)c2)cc1	inactive: -0.209%	–
Cc1ccccc1NC(=S)NCc1ccc2[nH]c3c(c2c1)CCCC3	inactive: 8.57%	–
C=CCNC(=S)N/N=C/c1ccc(C(F)(F)F)cc1	inactive: 3.98%	–
COc1cc(OC)c2c(=O)cc(-c3cccnc3)oc2c1	inactive: -16.1%	–
CC(/C=N/NC(=O)c1cc(-c2ccncc2)nc2ccccc12)=C\c1ccco1	inactive: -17.6%	–
COc1ccc(C(=O)N[C@H](C(=O)Nc2nc3ccccc3[nH]2)C(C)C)cc1	inactive: -9.83%	–
Cc1ccc2[nH]c(C(=O)N/N=C/c3ccccc3C(=O)O)c(-c3ccccc3)c2c1	inactive: -19.8%	–
COc1ccccc1/C=N/NC(=S)Nc1cccnc1	inactive: -2.9%	–
CN[C@H]1CCc2cc(OC)c(OC)c(OC)c2-c2ccc(N(C)CC(OC)OC)c(=O)cc21	inactive: -0.175%	–
CSc1nc(N(C)NC(=O)c2cccc(C)c2)c2ccccc2n1	inactive: -1.88%	–
CSc1nc(SCC(=O)NCc2ccco2)c2c3c(sc2n1)COC(C)(C)C3	inactive: -0.354%	–
Cc1ccccc1C(=O)N1CCC(C(=O)N2CCN(Cc3ccc4c(c3)OCO4)CC2)CC1	inactive: 2.03%	–
O=C(Cc1cccs1)N/N=C/C=C/c1ccco1	inactive: 9.19%	–
CC[C@]12c3[nH]c4cc(CCC(=O)N(C)C)ccc4c3CCN1C(=O)[C@@H](CC(=O)NCC13CC4CC(CC(C4)C1)C3)C[C@@H]2C(=O)N1CCN(C(=O)c2ccco2)CC1	inactive: -5.47%	–
CCOc1ccccc1OCC(=O)N/N=C(\C)Cc1ccc(OC)cc1	inactive: 0.674%	–
O=C(CSc1cccc[n+]1[O-])c1ccccc1Br	inactive: -12.4%	–
Cc1cccc(C(=O)N[C@H](C(=O)Nc2nc3ccccc3[nH]2)C(C)C)c1	inactive: -18.3%	–
CNC(=S)N/N=C(\C)c1cccc([N+](=O)[O-])c1	inactive: 4.54%	–
COc1cc(C(=O)NNC(=S)Nc2ccc(S(N)(=O)=O)cc2)cc(OC)c1OC	inactive: 2.08%	–

SMILES	activity change, negative = inhibition	Potency
CCCC(=O)Nc1ncnc2c1ncn2[C@@H]1O[C@@H]2COP(=O)(O)O[C@H]2[C@H]1OC(=O)CCC	inactive: -0.82%	–
CC(C)(CNC(=O)CO/N=C1/C=C2CCC3C(C(O)C[C@@]4(C)C3CC[C@]4(O)C(=O)CO)[C@@]2(C)CC1)C(O)C(=O)O (stereo partly drawn)	inactive: 5.62%	–
CC(C)c1ccc(/C=N/NC(=O)c2ccccc2Cl)cc1	inactive: 4.09%	–
COc1cc(C(=O)N/N=C/c2cc([N+](=O)[O-])cs2)cc(OC)c1OC	inactive: 7.09%	–
CCOC(=O)C(C)Oc1cccc2c(=O)n(CC(=O)NCc3ccco3)ccc12 (stereo not drawn)	inactive: -13.8%	–
Cc1ccc(NC(=S)N/N=C/c2c(Cl)cccc2Cl)c(C)c1	inactive: 17.3%	–
COc1ccccc1-c1nnc2n1N=C(c1ccc(O)c(O)c1)CS2	inactive: -15.3%	–
COc1ccc(OCCOC(=O)c2[nH]c(C)c(C(C)=O)c2C)cc1	inactive: 7.23%	–
COc1ccc(C2CC(c3ccc(OC)c(OC)c3)=NN2C(=O)c2ccccc2)cc1 (stereo not drawn)	inactive: -1.47%	–
Cc1[nH]n(C(N)=S)c(=O)c1N=Nc1ccc2ccccc2c1	inactive: -24.7%	–
COc1cc(/C=C2/S/C(=N/S(=O)(=O)c3ccccc3)NC2=O)c([N+](=O)[O-])cc1OC	inactive: 14.5%	–
COc1ccccc1NC(=O)N1CCC(c2nc3cc(C)c(C)cc3[nH]2)CC1	inactive: -25.1%	–
CC1=C/C(=N\NC(=S)NCc2ccccc2)CC1	inactive: 4.2%	–
COc1cc(C(=O)N/N=C/c2sccc2C)cc(OC)c1OC	inactive: -0.336%	–
CCCCC[C@H](O)/C=C/[C@@H]1[C@@H](C/C=C\CCCC(=O)O)[C@@H](O)C[C@H]1O	inactive: -7.9%	–
Cc1cc(C)c2nc3sc(C(=O)N4CCOCC4)c(N)c3cc2c1	inactive: -12.7%	–
COc1ccc(CCNC(=O)c2cnc3scc(C)n3c2=O)cc1OC	inactive: -10.9%	–
CCN(CC)C(=S)NC(=O)c1ccc(F)cc1	inactive: 1.9%	–
CCOc1cc(/C=C2\CN(C)C/C(=C\c3ccc(O)c(OCC)c3)C2=O)ccc1O	–	active: 5.36 µM
CCOC(=O)c1c(C)oc2c1cc(NS(=O)(=O)c1ccc(C(=O)O)cc1)c1ccccc12	inactive: -1.1%	–
COc1ccccc1-c1nnc(Nc2nc3c(OC)cccc3s2)o1	inactive: -25.9%	–
CC1=C(C(=O)Nc2ccc(CC(=O)NCc3ccc(OC(C)C)cc3)cc2)SCCO1	inactive: -7.74%	–
CCc1ccc(NC(=O)C(C)OC(=O)/C=C/c2ccc(O)c(OC)c2)cc1 (stereo not drawn)	inactive: -16.3%	–
COc1cc(C(=O)N/N=C(\C)Cc2ccccc2)cc(OC)c1OC	inactive: -0.748%	–
CCCSc1nc(C)c(C(C)=O)cc1C#N	inactive: -8.83%	–
COCCN(Cc1cc2cc(C)cc(C)c2nc1Cl)C(=O)Nc1ccccc1	inactive: 10.9%	–

SMILES	activity change, negative = inhibition	Potency
CCOc1ccc(OCc2ccc(C(=O)N/N=C(\C)c3ccccn3)cc2)cc1	inactive: -3.8%	–
CCOC(=O)c1ccc(-c2c(-c3cc(OC)c(OC)c(OC)c3)noc2C)cc1F	inactive: -17.6%	–
COc1cc(/C=C/c2ccc3cccc(O)c3n2)cc(OC)c1OC	inactive: -22%	–
S=C(Nc1ccccn1)c1ccccn1	inactive: -26.7%	–
CCOc1ccccc1N1CSC2=C(C#N)C(c3c(OC)ccc4ccccc34)CC(=O)N2C1 (stereo not drawn)	inactive: -24.8%	–
CCCNC(=O)c1ccc(-c2nn(C)c(=O)c3ccccc23)cc1	inactive: -1.09%	–
Cc1c(CCC(=O)N2CCC(C(=O)O)(c3ccccc3)CC2)c(=O)oc2cc3oc4c(c3cc12)CCCC4	inactive: -15%	–
COc1cc(NC(=O)COC(=O)Cc2ccc(-c3ccccc3)cc2)cc(OC)c1	inactive: -10.2%	–
Oc1ccccc1-n1c(-c2ccccc2)ccc1-c1ccccc1	inactive: -21.9%	–
COc1cc(C(=O)N/N=C/C2CC=CCC2)cc(OC)c1OC (stereo not drawn)	inactive: 9.85%	–
Cc1cc(C)c2nc(C(F)(F)F)nc(NCCCN3CCOCC3)c2c1	inactive: -1.78%	–
COc1cc(S(=O)(=O)N2CCCCC2)ccc1NC(=O)/C=C/c1ccccc1	inactive: 4.68%	–
COc1ccc(C2=Nn3c(nnc3-c3ccc(OC)cc3)SC2)cc1	inactive: 11.9%	–
O=C(OCC(=O)c1ccc[nH]1)c1ccc(Cl)c(Cl)c1	inactive: -0.0787%	–
CCC1=Nc2cc(C(=O)NCc3cccnc3)ccc2Sc2ccc(C)cc21	inactive: 2.12%	–
CCOc1cccc(C2CC(=O)Nc3cc(OC)c(OC)cc32)c1 (stereo not drawn)	inactive: 5.18%	–
CCN(CC(=O)NCc1ccc(F)cc1)C(=O)/C=C/c1ccc(OC)c(S(=O)(=O)NC(C)C)c1	inactive: -3.39%	–
COc1cc2c(cc1OC)-c1cc(NC3CCCC3)nc(=O)n1CC2	inactive: -1.28%	–
COC(=O)c1cc(C(=O)N2CCN(c3cccc(Cl)c3)CC2)cc([N+](=O)[O-])c1	inactive: -0.459%	–
Cc1cc(C(N)=O)nn1-c1c(Cl)cc(Cl)cc1Cl	inactive: 0.801%	–
CCOc1ccc(S(=O)(=O)Nc2cc(OC)ccc2OC)cc1	inactive: 21.9%	–
COc1cccc(N2CCN(C(=O)c3ccc(CS(=O)c4ccc(Cl)cc4)o3)CC2)c1 (stereo not drawn)	inactive: -26.8%	–
COc1ccc(C2CC(c3c(O)cc(C)oc3=O)=NCCS2)c(OC)c1 (stereo not drawn)	inactive: -16.9%	–
CC1=CC(C)(C)N2C(=O)C(=O)c3cc(OC(=O)c4ccco4)cc1c32	inactive: 2.98%	–
CC(C)n1c(SCC(=O)Nc2ccccc2)nc2c1c(=O)n(C)c(=O)n2C	inactive: -2.3%	–
